In EPA's CvTdb concentration-time database:
Further values from the same series stand in other lists.

What was measured:
Test in all cases: concentration in plasma after dosing
Rat [1] = conditions: 0.5 h; dosed: 2-Hydroxy-4-methoxybenzophenone; 8 mg/kg; iv; Female; F344
Mouse [2] = conditions: 8 h; dosed: 2-Hydroxy-4-methoxybenzophenone; 500 mg/kg; oral; Female; B6C3F1
Mouse [3] = conditions: 8 h; dosed: 2-Hydroxy-4-methoxybenzophenone; 500 mg/kg; oral; Male; B6C3F1
Mouse [4] = conditions: 0.5 h; dosed: 2-Hydroxy-4-methoxybenzophenone; 50 mg/kg; iv; Female; B6C3F1
Mouse [5] = conditions: 12 h; dosed: 2-Hydroxy-4-methoxybenzophenone; 50 mg/kg; iv; Male; B6C3F1
Rat [6] = conditions: dosed: 2-Hydroxy-4-methoxybenzophenone, 100 mg/kg, oral, Male, F344
Mouse [7] = conditions: 12 h; dosed: 2-Hydroxy-4-methoxybenzophenone; 50 mg/kg; iv; Male; B6C3F1; remark: listed apart in the source
Rat [8] = conditions: dosed: 2-Hydroxy-4-methoxybenzophenone, 100 mg/kg, oral, Female, F344
Rat [9] = conditions: dosed: 2-Hydroxy-4-methoxybenzophenone, 250 mg/kg, oral, Male, F344
Mouse [10] = conditions: 7 h; dosed: 2-Hydroxy-4-methoxybenzophenone; 250 mg/kg; oral; Female; B6C3F1
Mouse [11] = conditions: 5 h; dosed: 2-Hydroxy-4-methoxybenzophenone; 250 mg/kg; oral; Female; B6C3F1
Mouse [12] = conditions: 0.5 h; dosed: 2-Hydroxy-4-methoxybenzophenone; 500 mg/kg; oral; Male; B6C3F1
Mouse [13] = conditions: 0.5 h; dosed: 2-Hydroxy-4-methoxybenzophenone; 50 mg/kg; iv; Male; B6C3F1
Rat [14] = conditions: 2 h; dosed: 2-Hydroxy-4-methoxybenzophenone; 250 mg/kg; oral; Male; F344
Rat [15] = conditions: 16 h; dosed: 2-Hydroxy-4-methoxybenzophenone; 500 mg/kg; oral; Female; F344
Mouse [16] = conditions: 2.5 min; dosed: 2-Hydroxy-4-methoxybenzophenone; 500 mg/kg; oral; Male; B6C3F1
Rat [17] = conditions: dosed: 2-Hydroxy-4-methoxybenzophenone, 250 mg/kg, oral, Female, F344
Mouse [18] = conditions: 2.5 min; dosed: 2-Hydroxy-4-methoxybenzophenone; 500 mg/kg; oral; Female; B6C3F1
Rat [19] = conditions: dosed: 2-Hydroxy-4-methoxybenzophenone, 250 mg/kg, oral, Female, F344; remark: listed apart in the source
Rat [20] = conditions: dosed: 2-Hydroxy-4-methoxybenzophenone, 500 mg/kg, oral, Male, F344
Mouse [21] = conditions: 0.5 h; dosed: 2-Hydroxy-4-methoxybenzophenone; 500 mg/kg; oral; Female; B6C3F1
Rat [22] = conditions: dosed: 2-Hydroxy-4-methoxybenzophenone, 500 mg/kg, oral, Male, F344; remark: listed apart in the source
Mouse [23] = conditions: 12 h; dosed: 2-Hydroxy-4-methoxybenzophenone; 50 mg/kg; iv; Female; B6C3F1
Mouse [24] = conditions: 0.5 h; dosed: 2-Hydroxy-4-methoxybenzophenone; 250 mg/kg; oral; Female; B6C3F1
Mouse [25] = conditions: 10 h; dosed: 2-Hydroxy-4-methoxybenzophenone; 500 mg/kg; oral; Female; B6C3F1
Mouse [26] = conditions: 1 h; dosed: 2-Hydroxy-4-methoxybenzophenone; 50 mg/kg; iv; Female; B6C3F1
Rat [27] = conditions: dosed: 2-Hydroxy-4-methoxybenzophenone, 8 mg/kg, iv, Female, F344
Mouse [28] = conditions: 6 h; dosed: 2-Hydroxy-4-methoxybenzophenone; 50 mg/kg; iv; Female; B6C3F1
Rat [29] = conditions: dosed: 2-Hydroxy-4-methoxybenzophenone, 250 mg/kg, oral, Female, F344; remark: listed apart in the source
Rat [30] = conditions: 2.5 min; dosed: 2-Hydroxy-4-methoxybenzophenone; 100 mg/kg; oral; Female; F344
Rat [31] = conditions: 16 h; dosed: 2-Hydroxy-4-methoxybenzophenone; 500 mg/kg; oral; Female; F344; remark: listed apart in the source
Mouse [32] = conditions: 12 h; dosed: 2-Hydroxy-4-methoxybenzophenone; 50 mg/kg; iv; Female; B6C3F1; remark: listed apart in the source
Mouse [33] = conditions: 5 min; dosed: 2-Hydroxy-4-methoxybenzophenone; 500 mg/kg; oral; Female; B6C3F1
Rat [34] = conditions: dosed: Perfluorohexanoic Acid, 40 mg/kg, Male, F344
Rat [35] = conditions: 3 h; dosed: Perfluorohexanoic Acid; 80 mg/kg; oral; Female; Harlan Sprague Dawley
Rat [36] = conditions: dosed: Perfluorohexanoic Acid, 160 mg/kg, oral, Male, Harlan Sprague Dawley

O=C(c1ccccc1)c1ccc(O)cc1O [2,4-Dihydroxybenzophenone]
Conditions | concentration in plasma [ng/mL]
Mouse [2] | 80.2
Mouse [3] | 97.7
Mouse [4] | 286
Mouse [5] | 64.3
Mouse [7] | 75.5
Mouse [10] | 34.1
Mouse [11] | 66.8
Mouse [12] | 2860
Mouse [13] | 615
Mouse [16] | 198
Rat [1] | 50.4
Rat [14] | 118
Rat [15] | 34.9

concentration in plasma [ng/mL]
Conditions | Rat [6] | Rat [8] | Rat [9] | Rat [17]
1 h | 176 | 285 | – | 349
1.5 h | – | – | 341 | –
6 h | 41.8 | 53.3 | – | 120
8 h | – | – | 101 | –

COc1ccc(C(=O)c2ccccc2)c(O)c1 [2-Hydroxy-4-methoxybenzophenone]
Conditions | concentration in plasma [ng/mL]
Mouse [18] | 178
Mouse [21] | 1230
Mouse [23] | 15.6
Mouse [24] | 9.73
Mouse [25] | 48.3
Mouse [26] | 780
Mouse [28] | 23.8
Mouse [32] | 129000
Mouse [33] | 738
Rat [30] | 9.55
Rat [31] | 36.3

Conditions | concentration in plasma [ng/mL]
Rat [19], 2 h | 110
Rat [19], 5 min | 9.73
Rat [20], 1 h | 3510
Rat [20], 8 h | 308
Rat [22], 0.5 h | 117
Rat [22], 12 h | 35.7
Rat [27], 1.5 h | 94.3
Rat [27], 8 h | 11.9
Rat [29], 0.5 h | 165
Rat [29], 10 h | 19.4

O=C(O)C(F)(F)C(F)(F)C(F)(F)C(F)(F)C(F)(F)F [Perfluorohexanoic Acid]
concentration in plasma [ng/mL]
Conditions | 0.5 h | 0.75 h | 9 h | 24 h
Rat [34] | – | 98300 | – | 305
Rat [36] | 328000 | – | 14000 | –

Conditions | concentration in plasma [ng/mL]
Rat [35] | 45300
